Data published in the supplement of paper PMC10126150.
Sequences with one replicate were seen in a single cluster, so their values are uncertain.

System: ATP
Experiment: switch fluorescence ratio, 500 uM ATP over buffer (Cy3 cluster intensity, sum of 5 cycles each) (fold (ratio)); higher = stronger signal-on switching upon ATP binding; sequences stand for … in TCGTCGGCAGCGTCAGATGTGTATAAGAGACAGTTTTTTTTTTTTTTTTTTTTTTTTT…TC
Details: aptamer strand: ATP DNA aptamer (quencher-CACCTGGGGGAGTATTGCGGAGGAAGG + anchor), 100 nM annealed; ATP concentration: 500 uM; one replicate
In short: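 Five buffer/ATP imaging cycles were run on Cy3-labelled switching-strand clusters on a modified Illumina MiSeq flow-cell, with NaOH stripping and re-annealing between cycles. In each cycle, clusters annealed to 100 nM quencher-labelled ATP aptamer were imaged in selection buffer, then after 15 min with 500 uM ATP at 22 °C. Per cluster, the fluorescence ratio is summed target-cycle over summed buffer-cycle Cy3 intensity, averaged per switch-domain sequence. Only clusters within 100-1000 RFU were kept.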
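Also: ATP exposure 15 min at 22 °C before imaging.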

Row | Sequence | switch fluorescence ratio
1 | AGTAGTCCAT | 0.931
2 | ATATGTGCT | 0.968
3 | CCAATTGTTG | 0.959
4 | ATGGAGTAGA | 1.04
5 | TGCCTATTCT | 1.04
6 | CAATCATAGG | 0.999
7 | CGTGCGTTTG | 1.03
8 | ATGTGTCAA | 0.999
9 | CGCGGGGCTA | 0.997
10 | AAGGTCGAGA | 1.02
11 | AGAGGGCAG | 0.965
12 | AGTACGCGG | 0.962
13 | ATGGGGTCG | 0.995
14 | TGGTTCTGT | 0.95
15 | TATCCAGGCG | 1.13
16 | GCGCCTTGAT | 0.996
17 | GTGAAGGTGC | 1.44
18 | GCCGCGAGTT | 1.08
19 | CAGTTGCTGG | 0.983
20 | TGGGCGGTCG | 1.01
21 | TACGCCTTCA | 1.4
22 | AGTGTGTGGT | 1.03
23 | CGCAGGGCTG | 1.03

Row | Sequence | switch fluorescence ratio
24 | CACGTGCGAC | 1.12
25 | CGCTCCACTG | 1.14
26 | GTAGGAAGAA | 1.01
27 | GCCTCTAAGG | 1.02
28 | GTTCCCCTTG | 0.947
29 | CTTTGCTGAC | 2
30 | AATTCGGTGT | 0.994
31 | TATAGGTTCC | 1.02
32 | ACAGTTCGCA | 1.05
33 | ATTTATCATT | 0.993
34 | ACGTCATCTC | 1.17
35 | CAGCGGTTAG | 0.943
36 | CCTCGCGCCT | 3.95
37 | CTTTAGGGCT | 1.03
38 | CACTGCCTTG | 1.05
39 | GCCAGGGAGA | 1.06
40 | CCACCCCCGT | 1.65
41 | TCGCTAGTAT | 1.05
42 | TTCAACGGTT | 1.11
43 | GGTCATCT | 1.08
44 | CTGCCTCGGA | 0.982
45 | CCTGTGGGCA | 0.994
46 | ATTATCTATT | 1.01

Row | Sequence | switch fluorescence ratio
47 | GGTCGATCCT | 0.985
48 | TCTAGCCATT | 0.991
49 | TAGGGATAAT | 1.06
50 | CCATTGTACA | 1.02
51 | CTCAAAGCCC | 1.03
52 | GCATGTGGCC | 0.959
53 | GATGGTAACG | 0.983
54 | TTGCGGGTCA | 1.04
55 | ATGTGGTGGA | 1.03
56 | ACACTATTAG | 1.03
57 | AATGTGTGGA | 1.07
58 | CGGAGAGACA | 0.973
59 | CGGAAAAACT | 0.984
60 | GGAAGAAGGA | 0.97
61 | CGGGTTTACT | 0.976
62 | AATTGGCTCG | 0.956
63 | AAGTGTTGTT | 1.03
64 | GAAACTCTT | 1.05
65 | AGACTTCGTT | 0.967
66 | AAATGCCTGG | 1.03
67 | CTTCCCGAGC | 2.44
68 | CTCGTAGCTC | 1.47
69 | TAAATTCCAC | 0.985

Row | Sequence | switch fluorescence ratio
70 | CTGTTGGCGA | 1.07
71 | GAGGAATGGT | 1.02
72 | CCTATGTTGA | 1.04
73 | CTTGGGTAGA | 1.02
74 | CCGAAAAGTC | 1.15
75 | TCCACTTGTT | 1.01
76 | TGCGCGATCT | 1.22
77 | CGAAACTTCG | 1.06
78 | GCTCCGAGAA | 3.79
79 | GGGGGTAAGC | 1.06
80 | ACTCCACTGT | 4.24
81 | CATAGTTTCT | 1.02
82 | CCGCTTGAGT | 1.16
83 | TTTATACTGA | 1.02
84 | TATGACGCCA | 1.02
85 | GTCTTGGATT | 0.978
86 | AATTGTCACG | 1.01
87 | TGTGCTAG | 1.01
88 | GGCTTGGC | 1.06
89 | ATTTGGCTTT | 0.987
90 | GCCCGCGGGG | 0.974
91 | TCCCGGTCGC | 1.02
92 | TCGTACGTTA | 1.09

Row | Sequence | switch fluorescence ratio
93 | ACCTGCTGTA | 0.994
94 | TTGAAACT | 1.03
95 | TATGGTTCGT | 0.999
96 | GTATAATAGG | 0.994
97 | TTTAGGCCTG | 1.02
98 | CACACCGGGA | 1.01
99 | CCTCCCTCCG | 2.81
100 | ATTAGCAGAT | 0.977
101 | GATGAGTAAC | 1.02
102 | GCAGATTTG | 1.08
103 | ATGAAACCCC | 1.27
104 | GAACAAGATT | 1.08
105 | ATAGAGATGC | 1.09
106 | TGACCTGTTC | 1.04
107 | ATAAACTACG | 1.05
108 | TATACCTGCG | 1
109 | TTTCAATCCG | 1.04
110 | ATTTTACACG | 1.02
111 | AACACCTTTA | 1.06
112 | TATCGAGGGG | 0.951
113 | TTTTGTAAAT | 1.03
114 | CACAATCTAC | 1.16
115 | CTCCTTTAAC | 1.24

Row | Sequence | switch fluorescence ratio
116 | TTAGCAGATT | 1.02
117 | GGCTGTGCTT | 1.02
118 | TATCCGCTTT | 2.33
119 | ATTTTAAAGC | 1.04
120 | CTCGTAACGC | 1.15
121 | TTTTTTGTC | 0.967
122 | GAAAGGGTAA | 0.966
123 | TCACTTAGGC | 1.15
124 | TGTTTGGAGT | 1
125 | AAATGAAGGC | 0.961
126 | TTTCGTTGAT | 0.966
127 | CAATCTCAGC | 1.01
128 | GCCCCTGAGT | 1.11
129 | ATCATTTGAT | 1.01
130 | TGGACTCTGC | 0.996
131 | AGCATGTAGC | 1.07
132 | AGCGAGAACG | 1.04
133 | CGCGGTTATT | 1.01
134 | ACCTCCCGGT | 1.02
135 | CCCGTCAGAA | 1.2
136 | TCATTAGTCA | 0.956
137 | GAAGAACCGC | 1.15
138 | AGAGAAGGTG | 1.11

Row | Sequence | switch fluorescence ratio
139 | TCTGAGATTT | 0.992
140 | ATCATGTTG | 0.972
141 | CCCGGCTAGT | 1.09
142 | AGTCAGGAGC | 0.982
143 | TATTATAGTT | 1
144 | GCTGATTAGG | 1.03
145 | TTCAATTAAC | 1.02
146 | GTGTCTCTTG | 1
147 | TAGGAACCGG | 0.992
148 | CGCCACATGG | 1.95
149 | AAGTTGTCGC | 1
150 | AATTGGGGCC | 0.947
151 | CGGCCCGCCT | 1.01
152 | AATTTCATAT | 0.973
153 | CTAAAACCTT | 1.16
154 | TTAAGTAAGC | 1.14
155 | GAGGACAGTC | 1.07
156 | ATCGTTGGTT | 1.01
157 | AAGTGACAGA | 0.956
